The text below walks through data of paper PMC4336329 (PLoS ONE, 2015).

The whole screen tested about 310,000 compounds, of which about 14,000 (4.5%) showed an effect of 50% or more. The effect is printed as a negative number. Some of the results follow.
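Further: peak tail current of the secondary pulse compared with the same well before compound.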

human ether-à-go-go-related gene (hERG) potassium channel, sequence (Q12809 whole entry, looked up): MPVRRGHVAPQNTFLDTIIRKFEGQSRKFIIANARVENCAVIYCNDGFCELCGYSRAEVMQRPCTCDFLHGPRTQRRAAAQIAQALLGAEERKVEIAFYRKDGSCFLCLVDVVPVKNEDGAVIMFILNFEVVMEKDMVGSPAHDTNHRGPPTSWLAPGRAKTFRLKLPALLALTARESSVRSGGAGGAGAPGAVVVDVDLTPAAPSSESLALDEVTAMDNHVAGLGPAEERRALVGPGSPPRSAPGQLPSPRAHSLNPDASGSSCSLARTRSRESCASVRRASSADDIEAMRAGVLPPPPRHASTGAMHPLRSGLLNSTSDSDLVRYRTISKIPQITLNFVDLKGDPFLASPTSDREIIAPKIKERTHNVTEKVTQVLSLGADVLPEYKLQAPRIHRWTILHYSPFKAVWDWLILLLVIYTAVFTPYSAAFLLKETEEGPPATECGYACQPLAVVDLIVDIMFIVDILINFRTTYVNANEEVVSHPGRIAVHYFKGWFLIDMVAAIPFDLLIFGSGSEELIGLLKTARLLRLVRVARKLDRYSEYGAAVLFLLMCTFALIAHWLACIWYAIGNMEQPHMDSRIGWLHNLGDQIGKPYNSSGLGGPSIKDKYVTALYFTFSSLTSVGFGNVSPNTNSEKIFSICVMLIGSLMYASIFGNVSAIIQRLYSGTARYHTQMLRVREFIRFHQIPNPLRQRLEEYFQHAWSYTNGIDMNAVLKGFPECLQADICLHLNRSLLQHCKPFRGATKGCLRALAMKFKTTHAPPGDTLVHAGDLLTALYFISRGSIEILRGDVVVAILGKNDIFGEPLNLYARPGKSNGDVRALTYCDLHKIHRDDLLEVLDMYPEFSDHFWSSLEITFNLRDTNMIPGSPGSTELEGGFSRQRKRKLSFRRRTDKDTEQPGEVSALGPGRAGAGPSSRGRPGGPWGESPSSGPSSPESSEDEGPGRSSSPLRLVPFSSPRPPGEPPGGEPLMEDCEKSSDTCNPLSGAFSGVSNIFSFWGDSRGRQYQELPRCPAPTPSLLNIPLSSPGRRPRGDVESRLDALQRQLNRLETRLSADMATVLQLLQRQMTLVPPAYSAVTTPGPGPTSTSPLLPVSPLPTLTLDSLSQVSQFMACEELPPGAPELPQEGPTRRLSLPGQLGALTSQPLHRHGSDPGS

The assay concerns the target human ether-à-go-go-related gene (hERG) potassium channel (human, UniProt Q12809). Nature of the assay: primary screen, population patch clamp on CHO cells stably expressing hERG.
`CCOC(=O)c1ccc(NC(=O)CSc2nc(C)cc(=O)[nH]2)cc1`: the “hERG current change (%, negative = inhibition) at 10uM” value was found to be 14.4%. The result for `CCOC(=O)C1(c2nc(N)cs2)COC(=O)C1` (stereo not drawn) reads 16.3%. With `Cc1ccc(-n2c(O)c(C=Nc3ccc(Br)cn3)c(=O)[nH]c2=O)cc1` the figure was 11.5%. With `O=C(c1ccccc1-c1ncc[nH]1)N1CCc2c([nH]c3ccccc23)C1c1ccccn1` (stereo not drawn) the figure was -25.1%; with `CC(C)C(=O)Nc1ccc(S(=O)(=O)Nc2ccccn2)cc1`, 1.92%; with `CCn1nnnc1SCC(=O)Nc1cccc(NC(C)=O)c1`, -1.06%. In the case of `O=C(COc1ccccc1-c1ccccc1)NCc1ccco1`, the “hERG current change (%, negative = inhibition) at 10uM” value is listed as -28%.

`COc1ccc2nc(SCC(=O)Nc3nccs3)[nH]c2c1`: the “hERG current change (%, negative = inhibition) at 10uM” value was 11.4%. With `CC1CC(=O)N(CC(=O)Nc2cccc(F)c2)c2ccccc2S1(=O)=O` (stereo not drawn) the figure was -4.3%. The result for `COC(=O)c1ccccc1NC(=O)c1ccccc1SC` reads -7.31%; that for `CCN1/C(=C/c2cccc[n+]2C)Sc2ccc(OC)cc21.[I-]`, -67.3%; that for `Cc1ccc2nc(CSc3nnc(-c4ccncc4)n3C)cc(=O)n2c1`, 0.704%. With `Cl.Cn1nnc2c(N3CCCCC3)nccc21` the figure was -8.39%. With `CCOC(=O)c1cnc2c(C)c(Cl)ccc2c1N1CCOCC1.Cl`, the “hERG current change (%, negative = inhibition) at 10uM” value worked out at 10.8%. As to `COc1ccc(C2NC(=S)NC3=C2CCc2ccccc23)cc1OC` (stereo not drawn), the “hERG current change (%, negative = inhibition) at 10uM” value is given as 13.3%.

For `CCOC(=O)c1[nH]c2c(c1-c1ccccc1)C(=O)CC(c1ccc(Cl)cc1)C2` (stereo not drawn), the “hERG current change (%, negative = inhibition) at 10uM” value is 9.15%. Regarding `O=C(Cn1c(=O)oc2cc(S(=O)(=O)N3CCCC3)ccc21)NCc1ccc(F)cc1`, the “hERG current change (%, negative = inhibition) at 10uM” value is on record as -1.73%. Turning to `CCOC(=O)N1CCC(NC(=O)c2cc(C)c3c(C)nn(-c4ccccc4)c3n2)CC1`, the “hERG current change (%, negative = inhibition) at 10uM” value stood at 0.638%.

Consider `Cl.O=C(NCC(c1cccs1)N1CCOCC1)c1ccccc1NS(=O)(=O)c1ccc(Cl)c([N+](=O)[O-])c1` (stereo not drawn), for which the “hERG current change (%, negative = inhibition) at 10uM” value is listed as -6.82%. The result for `CCc1nnc(NC(=O)CCN2C(=O)c3ccccc3S2(=O)=O)s1` reads 17.3%; that for `CC1(C)CC2CC(C)(CN2S(=O)(=O)c2cccc(C(=O)OCC(N)=O)c2)C1` (stereo not drawn), -7.62%; that for `COCCNC(=O)c1cc2c(-c3ccccc3F)nn(C)c2s1`, -6.2%. With `CCC1C(=O)Nc2ccccc2N1C(=O)COc1ccccc1` (stereo not drawn) the figure was 7.72%.

Regarding `O=C(Cc1c(F)cccc1Cl)NCCCn1ccnc1`, the “hERG current change (%, negative = inhibition) at 10uM” value is listed as -24.6%. The result for `Cc1ccsc1CN(C)C(=O)c1cc(S(=O)(=O)N2CCOCC2)ccc1N1CCCC1` reads -40.5%; that for `CC(C)(C)N(NC(=O)OCc1ccccc1)C(=O)c1ccccc1`, 3.5%. The result for `COc1ccc(C(=O)C2CCN(C(=O)c3ccc(F)cc3)CC2)cc1` reads -28.5%. Take `COc1cccc(CC(NC(C)=O)C(=O)NC2CCN(C(=O)c3ccc(Cl)cc3)CC2)c1OC` (stereo not drawn): the “hERG current change (%, negative = inhibition) at 10uM” value was -9.4%.

Consider `CCN1CCN(C2=C(Cl)C(=O)N(Cc3ccccc3)C2=O)CC1`, for which the “hERG current change (%, negative = inhibition) at 10uM” value is reported as -41.2%. The result for `COc1ccc(Cl)cc1NS(=O)(=O)c1cccc(C(=O)NC2CCC(O)CC2)c1` (stereo not drawn) reads -26.3%. For the compound `O=C(C1=C[C@H](c2ccc3c(c2)OCO3)C[C@H](OCc2ccc(CO)cc2)O1)N1CCCCCCC1`, the “hERG current change (%, negative = inhibition) at 10uM” value is -33.3%.

`COc1ccc2nc(SCC(=O)NCC(F)(F)F)[nH]c2c1`: the “hERG current change (%, negative = inhibition) at 10uM” value worked out at 7.08%. Consider `NC(=O)c1ccsc1NC(=O)COC(=O)CSc1ccc(Cl)cc1`, for which the “hERG current change (%, negative = inhibition) at 10uM” value was 20.8%. The result for `O=C(N/N=C/c1cccnc1)c1cc2ccccc2cc1O` reads 5.26%; that for `CC1=C(C#N)C(c2ccc(O)cc2)C2=C(CC(C)(C)CC2=O)N1` (stereo not drawn), 19.3%; that for `Cc1ccc(-c2noc(CSc3nnc(Cc4cccs4)n3-c3ccccc3)n2)cc1`, -17.9%.

For the compound `Cn1ncc(Cl)c1C(=O)N/N=C/c1ccccn1`, the “hERG current change (%, negative = inhibition) at 10uM” value turned out to be 4.18%. For `CN(CC(=O)Nc1ccccc1Cl)C(=O)CSC(=S)N1CCCC1`, the “hERG current change (%, negative = inhibition) at 10uM” value is recorded as -0.418%. For the compound `O=C(O)c1ccccc1SSc1ccccc1C(=O)O`, the “hERG current change (%, negative = inhibition) at 10uM” value is given as 25.5%. The result for `O=C(N/N=C/c1ccc(OC(=O)c2ccco2)cc1)c1ccncc1` reads 9.91%; that for `CN(C(=O)c1cc(-c2ccccc2)on1)C1CCCCC1`, 10.5%; that for `O=C(Nc1cccc(Cl)c1)N1CCOCC1`, 20%. `CCc1ccccc1NS(=O)(=O)c1ccc(OC)c2ncccc12`: the “hERG current change (%, negative = inhibition) at 10uM” value was 8.84%. With `CC(C)C(NS(=O)(=O)c1cccc2nsnc12)C(=O)N1CCCCC1` (stereo not drawn) the figure was -3.61%. With `Cc1ccc(C(=O)OCC(=O)N2CC(C)OC(C)C2)cc1` (stereo not drawn) the figure was 24.1%.
